Publication PMC4933246
Results are given in words; binding and its absence hold for the method and conditions named. For some assays here: In cells and extracts the contact can be indirect. Some results given as binding are weak or reduced against the parent protein; the word gives no strength.

Amino acid sequences for entries named in this document (tags omitted). A change or cut given only in a name is not applied to a line headed by its entry.
UniProt Q99453: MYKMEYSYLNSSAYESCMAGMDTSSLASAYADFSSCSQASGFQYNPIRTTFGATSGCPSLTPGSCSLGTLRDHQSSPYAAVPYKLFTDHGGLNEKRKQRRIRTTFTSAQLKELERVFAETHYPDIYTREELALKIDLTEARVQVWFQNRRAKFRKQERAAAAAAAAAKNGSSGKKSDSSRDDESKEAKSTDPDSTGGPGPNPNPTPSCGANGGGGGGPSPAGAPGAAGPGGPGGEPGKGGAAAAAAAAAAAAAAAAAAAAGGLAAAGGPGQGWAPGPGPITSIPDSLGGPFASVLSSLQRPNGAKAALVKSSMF
UniProt O14813: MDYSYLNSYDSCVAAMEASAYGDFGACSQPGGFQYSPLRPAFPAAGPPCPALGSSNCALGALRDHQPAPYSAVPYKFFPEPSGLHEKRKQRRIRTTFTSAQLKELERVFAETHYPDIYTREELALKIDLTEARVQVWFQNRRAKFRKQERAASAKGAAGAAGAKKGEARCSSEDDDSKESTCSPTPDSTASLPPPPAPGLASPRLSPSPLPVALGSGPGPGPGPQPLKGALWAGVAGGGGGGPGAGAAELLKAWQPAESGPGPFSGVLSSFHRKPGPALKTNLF

What was measured:
[1] = biological target: PHOX2B wild type fused to GAL4 BD or VP16 AD (human) (UniProt Q99453); assay: two-hybrid; mammalian two-hybrid (CheckMate, Promega) in HeLa cells; GAL4 BD fusion (pBIND) and VP16 AD fusion (pACT), 80 fmol each, with 160 fmol pG5LUC; Dual-Luciferase assay
[2] = biological target: in vitro expressed PHOX2B wild-type protein (human) (UniProt Q99453); assay: native gel or EMSA; in vitro expressed proteins (rabbit reticulocyte lysate) combined in equimolar amounts with a labelled oligonucleotide of the DBH promoter; supershift with anti-PHOX2A or anti-PHOX2B antibodies
[3] = biological target: PHOX2A fused to GAL4 BD or VP16 AD (human) (UniProt O14813); assay: two-hybrid; mammalian two-hybrid (CheckMate, Promega) in HeLa cells; GAL4 BD fusion (pBIND) and VP16 AD fusion (pACT), 80 fmol each, with 160 fmol pG5LUC; Dual-Luciferase assay
[4] = biological target: PHOX2B wild type fused to GAL4 BD or VP16 AD (human) (UniProt Q99453); assay: two-hybrid; competition in the mammalian two-hybrid system in HeLa cells: GAL4 BD- and VP16 AD-tagged PHOX2A (or PHOX2B WT) co-transfected with equimolar amounts of a plasmid encoding PHOX2B WT or mutants; pG5LUC luciferase
[5] = biological target: PHOX2A fused to GAL4 BD or VP16 AD (human) (UniProt O14813); assay: as above
[6] = biological target: PHOX2B wild-type protein, MYC- or HA-tagged (human) (UniProt Q99453); assay: co-IP; HeLa cells co-transfected with MYC- and HA-tagged expression vectors, harvested after 24 h; total extracts in 25 mM Tris-HCl pH 8.0, 150 mM NaCl, 1% Nonidet P-40, 0.5% sodium deoxycholate, 1 mM MgCl2 with universal nuclease; anti-MYC or anti-HA antibody overnight at 4 °C, protein G-agarose; Western blotting with anti-MYC and anti-HA
[7] = biological target: PHOX2A, MYC- or HA-tagged (human) (UniProt O14813); assay: as above

“VP16-PHOX2B 98–157 (from UniProt Q99453 98-157) (domain or fragment)” was tested, and the binding [1] was “no binding”.
For “in vitro expressed PHOX2A (from UniProt O14813 1-284)”, the binding [2] was “binds”.
For “VP16-PHOX2B 155–314 (from UniProt Q99453 155-314) (domain or fragment)”, the binding [1] was “no binding”.
For “PHOX2B wild type fused to GAL4 BD or VP16 AD (from UniProt Q99453 1-314)”, the binding [3] was “binds” and the binding [4] was “binds”.
In the case of “PHOX2A fused to GAL4 BD or VP16 AD (from UniProt O14813 1-284)”, the binding [1] is reported as “binds” and the binding [5] is reported as “binds”.
With “PHOX2B wild-type protein, MYC- or HA-tagged (from UniProt Q99453 1-314)” the binding [6] was “binds” and the binding [7] was “binds”.
For “PHOX2A, MYC- or HA-tagged (from UniProt O14813 1-284)”, the binding [7] was “binds”.
For “VP16-PHOX2B 98–314 (from UniProt Q99453 98-314) (domain or fragment)”, the binding [1] was “binds”.
